According to PubChem BioAssay (Tox21):
Where “and” joins values, the source holds several entries; their conditions need not be identical. Equal entries are not always repeated. The shares of active, inactive and inconclusive entries below differ from those in the screen. Where the call is inconclusive, the potency comes from a doubtful curve fit. Calls of active or inactive are those of the source. Unless noted, the call rests on the fitted dose curve; in most records, active means well fitted curve in the direction sought with a large enough effect in the repeat runs; inconclusive means weak or mixed curves; inactive means no such curve, though single readings can be large; an effect the other way counts as inactive or inconclusive.

What was measured:
[1] = qHTS assay to identify small molecule antagonists of the TGF-beta/Smad signaling pathway (AID 1346924; active means well fitted inhibition curve with a large enough effect in the signal ratio in the repeat runs, not every such curve was filed as active; inconclusive means weak or mixed curves; the % refers to the signal ratio); conditions: SBE-bla HEK293T, TGF-beta/Smad reporter, beta-lactamase ratio; activity, negative = inhibition: at 76.8 µM (top of the series) unless noted
Method in brief: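 SBE-bla HEK 293T cells were plated overnight, then received compound in DMSO plus TGF-beta1 (added as a 0.25 ng/mL solution) and were incubated 5 h at 37 C. Beta-lactamase reporter activity was read after 2 h at room temperature with LiveBLAzer B/G FRET substrate (ex 405, em 460/530 nm).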

[2] = Caspase-3/7 induction in CHO-K1 cells by small molecules, qHTS assay (AID 1346980); further: nearly all actives have a fitted effect of over 15% in size
Method in brief: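 Wild-type cells were seeded at 1,500 per well and settled 5 hr at 37 C, 5% CO2, then exposed to DMSO-dissolved compounds for 17 hr. Caspase-Glo 3/7 reagent was added, and luminescence was read after 30min at room temperature.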

[3] = molecular target: Nuclear receptor subfamily 1 group I member 2 (Homo sapiens) (UniProt O75469); test: Human pregnane X receptor (PXR) small molecule agonists, qHTS assay (AID 1346982); further: nearly all actives have a fitted effect of over 35% in size
UniProt O75469, sequence (O75469 whole entry, looked up): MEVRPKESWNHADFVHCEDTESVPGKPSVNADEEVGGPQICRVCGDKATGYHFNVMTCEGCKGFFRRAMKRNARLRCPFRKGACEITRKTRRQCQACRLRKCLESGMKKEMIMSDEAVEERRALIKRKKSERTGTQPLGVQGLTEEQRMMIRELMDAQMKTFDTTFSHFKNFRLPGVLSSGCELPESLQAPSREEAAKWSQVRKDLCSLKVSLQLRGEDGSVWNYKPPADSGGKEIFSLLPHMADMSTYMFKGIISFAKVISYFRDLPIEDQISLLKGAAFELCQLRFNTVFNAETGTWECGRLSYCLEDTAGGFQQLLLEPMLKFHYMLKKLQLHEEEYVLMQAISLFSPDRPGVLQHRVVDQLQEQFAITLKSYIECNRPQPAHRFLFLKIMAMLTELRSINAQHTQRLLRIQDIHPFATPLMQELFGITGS
Method in brief: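 Luciferase signal from ONE-Glo (30 min, room temperature) measured activation of hPXR-driven CYP3A4 reporter expression in PXR-Luc HepG2 cells treated with compounds for 24 hr at 37 C.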

[4] = molecular target: Cytochrome P450 2D6 (Homo sapiens) (UniProt P10635); test: Cytochrome P450 Family 2 Subfamily D Member 6 (CYP2D6) small molecule antagonists: luciferase reporter qHTS assay (AID 1671196); further: nearly all actives have a fitted effect of over 50% in size
UniProt P10635, sequence (P10635 whole entry, looked up): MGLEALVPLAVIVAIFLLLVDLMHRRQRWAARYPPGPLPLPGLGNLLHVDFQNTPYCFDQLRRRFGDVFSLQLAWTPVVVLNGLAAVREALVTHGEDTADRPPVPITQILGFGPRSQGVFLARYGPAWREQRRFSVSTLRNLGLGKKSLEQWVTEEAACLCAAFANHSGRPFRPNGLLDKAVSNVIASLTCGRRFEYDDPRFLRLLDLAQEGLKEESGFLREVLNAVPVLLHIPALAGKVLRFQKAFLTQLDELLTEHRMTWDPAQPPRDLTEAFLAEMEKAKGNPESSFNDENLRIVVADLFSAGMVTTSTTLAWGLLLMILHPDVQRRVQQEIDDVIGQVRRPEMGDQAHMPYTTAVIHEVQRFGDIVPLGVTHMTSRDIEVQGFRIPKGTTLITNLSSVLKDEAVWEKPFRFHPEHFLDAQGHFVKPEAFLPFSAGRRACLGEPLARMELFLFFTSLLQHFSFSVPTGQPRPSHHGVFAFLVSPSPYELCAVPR
Method in brief: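 Read-out is luminescence from luciferin formed by CYP2D6 turnover of a proluciferin substrate, recorded as relative luminescence units. Reactions ran 1 h at room temperature after NADPH regeneration solution was added.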

[5] = molecular target: Cytochrome P450 2C19 (Homo sapiens) (UniProt P33261); test: Cytochrome P450 Family 2 Subfamily C Member 19 (CYP2C19) small molecule antagonists: luciferase reporter qHTS assay (AID 1671197); further: nearly all actives have a fitted effect of over 65% in size
UniProt P33261, sequence (P33261 whole entry, looked up): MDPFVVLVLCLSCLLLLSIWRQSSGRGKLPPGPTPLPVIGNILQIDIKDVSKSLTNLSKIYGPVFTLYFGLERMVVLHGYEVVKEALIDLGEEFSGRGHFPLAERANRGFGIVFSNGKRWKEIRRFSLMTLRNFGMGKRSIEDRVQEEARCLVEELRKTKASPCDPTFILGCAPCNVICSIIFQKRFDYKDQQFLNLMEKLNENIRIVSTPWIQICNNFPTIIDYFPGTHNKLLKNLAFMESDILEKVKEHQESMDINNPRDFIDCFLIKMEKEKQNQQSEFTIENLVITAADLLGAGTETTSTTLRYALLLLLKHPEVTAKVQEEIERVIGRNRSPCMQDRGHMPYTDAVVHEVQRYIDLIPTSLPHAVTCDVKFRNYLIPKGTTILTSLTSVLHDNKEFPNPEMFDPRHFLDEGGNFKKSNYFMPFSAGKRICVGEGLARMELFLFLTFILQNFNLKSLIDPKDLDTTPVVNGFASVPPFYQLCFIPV
Method in brief: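 Compounds were tested on CYP2C19 activity via proluciferin conversion to luciferin. The 37C, 1 h reaction followed NADPH addition; detection reagent stopped it.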

[6] = molecular target: Cytochrome P450 3A4 (Homo sapiens) (UniProt P08684); test: Cytochrome P450 Family 3 Subfamily A Member 4 (CYP3A4) small molecule antagonists: luciferase reporter qHTS assay (AID 1671201); further: nearly all actives have a fitted effect of over 50% in size
UniProt P08684, sequence (P08684 whole entry, looked up): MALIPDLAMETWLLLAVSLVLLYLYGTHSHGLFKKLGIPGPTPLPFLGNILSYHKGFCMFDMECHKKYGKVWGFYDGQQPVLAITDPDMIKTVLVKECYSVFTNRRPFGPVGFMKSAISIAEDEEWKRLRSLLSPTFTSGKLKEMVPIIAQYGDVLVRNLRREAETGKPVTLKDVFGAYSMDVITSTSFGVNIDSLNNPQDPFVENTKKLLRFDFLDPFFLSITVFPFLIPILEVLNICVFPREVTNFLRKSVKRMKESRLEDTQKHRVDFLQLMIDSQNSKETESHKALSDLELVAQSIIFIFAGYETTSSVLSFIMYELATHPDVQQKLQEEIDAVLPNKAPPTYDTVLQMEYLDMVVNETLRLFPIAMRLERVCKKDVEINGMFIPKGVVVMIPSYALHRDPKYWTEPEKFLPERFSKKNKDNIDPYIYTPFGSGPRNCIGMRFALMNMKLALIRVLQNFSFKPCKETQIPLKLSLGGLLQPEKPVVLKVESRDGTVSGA
Method in brief: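 Setup: enzyme-substrate mix, compound pin transfer, 10 min RT. Reaction: NADPH regeneration solution, 1 h RT. Readout: detection reagent stops turnover, luminescence measured after 20 min, expressed in relative luminescence units.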

[7] = Human pregnane X receptor (PXR) small molecule agonists, qHTS cell viability counter screen (AID 1346977); further: nearly all actives have a fitted effect of over 50% in size
Method in brief: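 Readout is CellTiter-Fluor fluorescence from PXR-Luc HepG2 cells. Plated cells rested 5hr, then were treated with compounds for 24hr at 37C and 5% CO2, with reagent present during the last hour.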

[8] = Caspase-3/7 induction in HepG2 cells by small molecules, qHTS cell viability counter screen (AID 1346981); further: nearly all actives have a fitted effect of over 30% in size
Method in brief: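 HepG2, WT, 2,000 cells/well; 5 hr pre-incubation 37 C/5% CO2; compound pin-transferred from DMSO; 16 hr exposure; CellTiter-Fluor, 1 hr; fluorescence read.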

[9] = molecular target: Cytochrome P450 2C9 (Homo sapiens) (UniProt P11712); test: Cytochrome P450 Family 2 Subfamily C Member 9 (CYP2C9) small molecule antagonists: luciferase reporter qHTS assay (AID 1671198); further: nearly all actives have a fitted effect of over 50% in size
UniProt P11712, sequence (P11712 whole entry, looked up): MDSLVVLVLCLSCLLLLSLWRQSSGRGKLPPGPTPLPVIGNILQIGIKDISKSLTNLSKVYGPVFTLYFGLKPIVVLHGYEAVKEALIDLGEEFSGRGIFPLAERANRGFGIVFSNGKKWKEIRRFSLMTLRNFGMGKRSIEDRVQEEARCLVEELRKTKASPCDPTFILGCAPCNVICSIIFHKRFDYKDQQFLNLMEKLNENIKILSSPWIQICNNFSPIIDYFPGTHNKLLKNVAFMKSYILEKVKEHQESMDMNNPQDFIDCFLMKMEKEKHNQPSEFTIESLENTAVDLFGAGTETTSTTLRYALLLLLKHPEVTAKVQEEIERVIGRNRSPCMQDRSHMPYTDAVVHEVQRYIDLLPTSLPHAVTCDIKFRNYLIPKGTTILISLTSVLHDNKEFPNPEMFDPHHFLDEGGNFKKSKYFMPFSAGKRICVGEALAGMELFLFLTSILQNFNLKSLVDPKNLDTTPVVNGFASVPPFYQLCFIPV
Method in brief: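 CYP2C9 activity was measured with a P450-Glo proluciferin substrate. Enzyme–substrate mix was held with compound for 10 min at room temperature, then NADPH regeneration solution was added for 1 h at 37C. Luciferin product was read as luminescence.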

[10] = molecular target: Thyrotropin-releasing hormone receptor (Homo sapiens) (UniProt P34981); test: qHTS assay to identify small molecule agonists of the thyrotropin-releasing hormone receptor (TRHR) signaling pathway (AID 1346891; calls by dose curve)
UniProt P34981, sequence (P34981 whole entry, looked up): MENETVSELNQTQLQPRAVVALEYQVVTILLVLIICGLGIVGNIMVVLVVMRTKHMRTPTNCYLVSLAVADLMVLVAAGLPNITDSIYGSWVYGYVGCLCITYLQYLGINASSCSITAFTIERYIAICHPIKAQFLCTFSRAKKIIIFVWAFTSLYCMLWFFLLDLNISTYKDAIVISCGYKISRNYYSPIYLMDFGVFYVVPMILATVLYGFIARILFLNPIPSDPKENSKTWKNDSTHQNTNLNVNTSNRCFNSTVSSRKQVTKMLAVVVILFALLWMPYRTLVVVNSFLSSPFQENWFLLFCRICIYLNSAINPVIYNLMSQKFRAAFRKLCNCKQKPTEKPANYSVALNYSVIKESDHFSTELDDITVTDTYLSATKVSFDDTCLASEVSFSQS
Method in brief: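 In 1536-format, 1500 TRHR-Hek293 cells per well grew 18 h, took up calcium dye for 2 h at 37 °C, received compound, and were read kinetically; 15-point titrations, triplicates.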

[11] = Caspase-3/7 induction in CHO-K1 cells by small molecules, qHTS cell viability counter screen (AID 1346979); further: nearly all actives have a fitted effect of over 35% in size
Method in brief: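 To flag cytotoxic compounds, treated CHO-K1 wild-type cells were given CellTiter-Fluor at 16hr and read fluorescently after 1hr at 37C; the caspase-3/7 luminescence was measured in these same wells.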

[12] = molecular target: Cytochrome P450 1A2 (Homo sapiens) (UniProt P05177); test: Cytochrome P450 Family 1 Subfamily A Member 2 (CYP1A2) small molecule antagonists: luciferase reporter qHTS assay (AID 1671199); further: nearly all actives have a fitted effect of over 50% in size
UniProt P05177, sequence (P05177 whole entry, looked up): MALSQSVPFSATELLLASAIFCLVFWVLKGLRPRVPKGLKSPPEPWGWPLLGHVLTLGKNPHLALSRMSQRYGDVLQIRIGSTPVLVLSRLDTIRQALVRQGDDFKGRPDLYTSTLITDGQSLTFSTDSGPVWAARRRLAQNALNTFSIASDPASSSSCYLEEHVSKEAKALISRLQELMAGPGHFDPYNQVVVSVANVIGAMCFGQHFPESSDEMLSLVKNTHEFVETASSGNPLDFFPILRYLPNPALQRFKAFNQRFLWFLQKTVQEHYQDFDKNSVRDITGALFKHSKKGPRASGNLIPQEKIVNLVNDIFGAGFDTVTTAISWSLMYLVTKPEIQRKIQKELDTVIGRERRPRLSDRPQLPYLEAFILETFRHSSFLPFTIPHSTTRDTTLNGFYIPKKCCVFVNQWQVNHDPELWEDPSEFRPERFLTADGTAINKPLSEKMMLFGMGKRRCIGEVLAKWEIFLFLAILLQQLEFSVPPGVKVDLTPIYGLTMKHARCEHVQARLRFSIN
Method in brief: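 P450-Glo CYP1A2, 1536-well qHTS: enzyme/proluciferin substrate + cpd (DMSO), 10 min RT; NADPH regen, 1 h RT; detection reagent, 20 min; luminescence, RLU.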

[13] = Caspase-3/7 induction in HepG2 cells by small molecules, qHTS assay (AID 1346978); further: nearly all actives have a fitted effect of over 15% in size
Method in brief: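 Wild-type HepG2 cells (2,000/well) were settled 5 h at 37 C, 5% CO2, then exposed to compounds in DMSO for 17 h. Caspase-3/7 activity was read by luminescence 30 min after adding Caspase-Glo 3/7 reagent at room temperature.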
Potency means the concentration at half of the fitted maximal effect; tags describe the fitted curve by direction and shape or compound fluorescence and quenching.

C=CC(=O)OCCCCCCOC(=O)C=C
Potency [1]: inconclusive: 43.6 µM [rising, partial curve]
activity, negative = inhibition [1]: inconclusive: 23.5%
Potency [2]: inconclusive: 22 µM [activator, partial curve] and inconclusive: 27.3 µM [activator, single point]
Potency [3]: inconclusive: 68.6 µM [activator, partial curve, poor fit]
Potency [4]: inconclusive: 71.9 µM [inhibitor, partial curve, poor fit]
Potency [5]: inconclusive: 11.4 µM [inhibitor, full curve, poor fit]
Potency [6]: inconclusive: 71 µM [inhibitor, partial curve]

Nc1ccc2cc3ccc(N)cc3nc2c1
Potency [1]: inconclusive: 43.6 µM [rising, partial curve]
activity, negative = inhibition [1]: inconclusive: 12.8% [at 35.3 µM]
Potency [7]: inconclusive: 27.3 µM [rising, partial curve] and inconclusive: 29.8 µM [rising, partial curve]
Potency [2]: active: 4.86 µM and active: 11.9 µM
Potency [8]: inconclusive: 27.3 µM [rising, partial curve] and inconclusive: 26.6 µM [rising, partial curve]
Potency [4]: active: 39.9 µM and inconclusive: 15.5 µM [inhibitor, partial curve]
Potency [9]: inconclusive: 39.9 µM [inhibitor]
Potency [6]: inconclusive: 9.77 µM [inhibitor, partial curve]

Cc1nc(-c2ccc(OCC(C)C)c(C#N)c2)sc1C(=O)O
Potency [1]: inconclusive: 9.52 µM [fluorescent, partial curve]

O=C1OC2(c3ccccc31)c1cc(I)c(O)c(I)c1Oc1c2cc(I)c(O)c1I
Potency [10]: active: 19.7 µM [middle of 4 runs]
Potency [1]: inconclusive: 31.3 µM [rising, partial curve, poor fit]
Potency [8]: active: 13.3 µM [middle of 4 runs]
Potency [4]: inconclusive: 15.3 µM [inhibitor, partial curve] and inconclusive: 15.5 µM [inhibitor, partial curve]
Potency [5]: inconclusive: 43.6 µM [inhibitor, single point]

CCCCCCCCCCCCCCCC[N+](C)(C)CC
Potency [10]: inconclusive: 39 µM [activator, partial curve]
Potency [7]: inconclusive: 33.5 µM [cytotoxic, single point]
Potency [11]: active: 43.4 µM and active: 29.8 µM
Potency [8]: inconclusive: 33.5 µM [cytotoxic, single point]
Potency [5]: inconclusive: 89.6 µM [inhibitor, single point]
Potency [9]: inconclusive: 79.9 µM [inhibitor, single point] and inconclusive: 43.6 µM [inhibitor, single point]
Potency [12]: inconclusive: 63.5 µM [inhibitor, partial curve]

CCCCOC(=O)C(=O)OCCCC
activity, negative = inhibition [1]: inconclusive: -5.19%

CC1(C)S[C@@H]2[C@H](NC(=O)COc3ccccc3)C(=O)N2[C@H]1C(=O)O
activity, negative = inhibition [1]: inconclusive: -2.67%

C=Cc1ccccc1
activity, negative = inhibition [1]: inconclusive: 9.89%

CC(C)=CCC/C(C)=C/CO
activity, negative = inhibition [1]: inconclusive: -14.5%

C[C@H](CCC(=O)O)[C@H]1CC[C@H]2[C@@H]3CC[C@@H]4C[C@H](O)CC[C@]4(C)[C@H]3CC[C@]12C
Potency [10]: inconclusive: 30.8 µM [activator] and inconclusive: 38.9 µM [activator, single point]
Potency [1]: inconclusive: 48.8 µM [rising, partial curve]
Potency [7]: inconclusive: 79.4 µM [cytotoxic, partial curve, poor fit]
Potency [13]: inconclusive: 68.3 µM [activator] and inconclusive: 68.6 µM [activator, single point]
Potency [11]: inconclusive: 68.6 µM [cytotoxic, single point]
Potency [2]: active: 48.4 µM and active: 61.1 µM
Potency [8]: inconclusive: 77 µM [cytotoxic, single point]
Potency [3]: inconclusive: 68.3 µM [activator, single point]

CCCCCCCCCCCCCCCS(=O)(=O)Oc1ccccc1
activity, negative = inhibition [1]: inconclusive: -0.15% [at 35.3 µM]
